Experimental data: PubChem BioAssay AID1030 (National Center for Advancing Translational Sciences (NCATS), 2008)
Hit rate of the full screen: of about 220,000 compounds, about 16,000 (7.3%) were called active. Inconclusive means that the source gave no clear call. Such entries were picked first, then a sample of the others. The call rests on the fitted dose curve; in most records, active means well fitted inhibition curve with a large enough effect (not every such curve was filed as active); inconclusive means small, poorly fitted or top-dose-only effect, or another doubt; inactive means no such curve, though single readings can be large or run the other way. No potency is given beside an inconclusive call; the fits are too rough.

Biological target: Aldehyde dehydrogenase 1A1 (Homo sapiens) (UniProt P00352)
Test: qHTS Assay for Inhibitors of Aldehyde Dehydrogenase 1 (ALDH1A1)
Conditions: Purified ALDH1A1, NADH fluorescence, propionaldehyde substrate; series mostly up to 75.3 µM
Potency means the concentration at half of the fitted maximal effect; tags describe the fitted curve by direction and shape.

UniProt P00352, sequence (P00352 whole entry, looked up): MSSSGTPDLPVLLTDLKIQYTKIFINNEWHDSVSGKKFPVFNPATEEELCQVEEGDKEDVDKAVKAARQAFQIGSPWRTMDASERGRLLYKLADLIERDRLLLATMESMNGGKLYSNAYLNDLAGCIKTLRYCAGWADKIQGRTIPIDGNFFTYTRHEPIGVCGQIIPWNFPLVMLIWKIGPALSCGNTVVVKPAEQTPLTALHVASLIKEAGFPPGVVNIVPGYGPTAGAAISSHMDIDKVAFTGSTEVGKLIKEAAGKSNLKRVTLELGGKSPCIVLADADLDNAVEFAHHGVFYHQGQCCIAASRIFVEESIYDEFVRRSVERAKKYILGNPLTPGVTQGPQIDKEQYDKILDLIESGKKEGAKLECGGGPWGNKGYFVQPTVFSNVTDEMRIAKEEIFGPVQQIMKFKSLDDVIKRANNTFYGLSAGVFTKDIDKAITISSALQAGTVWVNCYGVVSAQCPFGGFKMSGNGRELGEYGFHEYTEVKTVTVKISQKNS

| SMILES | Potency |
| --- | --- |
| CCc1cc(C(=O)c2ccc(C)cc2)c(NC(=O)CCl)s1 | active: 2.51 µM |
| Cc1ccc(-n2c(SCC(=O)Nc3cc(S(=O)(=O)N4CCOCC4)ccc3Cl)nc3ccccc3c2=O)cc1 | inactive |
| Cc1cc(C)nc(SCC(=O)c2ccc(O)cc2O)n1 | inactive |
| NC(=O)c1ccccc1NS(=O)(=O)c1ccccc1 | inconclusive [inhibitor, single point] |
| O=C(O)c1cc(Cl)cc(Cl)c1 | inactive |
| CC(=NCc1cccc(Cl)c1)c1nc(-c2ccco2)oc1O | active: 17.8 µM |
| Cc1nn(-c2nc3ccccc3[nH]2)c(N)c1-c1ccc(Cl)cc1 | inactive |
| N#Cc1ccc(CSc2nnc(NC(=O)C3CC(=O)N(c4ccc5c(c4)OCCO5)C3)s2)cc1 (centres undefined) | inconclusive [inhibitor, single point] |
| O=[N+]([O-])c1ccc(SCc2c(F)cccc2Cl)nc1 | inconclusive [inhibitor, single point] |
| CCOc1ccc(NC(=O)c2cccnc2C(=O)O)cc1 | active: 22.4 µM |
| Cc1c(NC(=O)c2cc(-n3cnnc3)ccc2Cl)cccc1-c1nc2ccccc2s1 | inconclusive [inhibitor, single point] |
| COc1ccc(-c2cc(=O)c3ccc(F)cc3[nH]2)cc1 | inconclusive [inhibitor, single point] |
| CC(C)(C)OC(=O)NCCCC1=CC2=CC(=O)C(C)(OC(=O)c3cnc4ccccc4n3)C(=O)C2=CO1 (centres undefined) | inactive |
| O=C(CSc1nnc(CNc2ccc(Cl)cc2)n1Cc1ccccc1)NCc1ccco1 | inconclusive [inhibitor, single point] |
| COC(=O)CCCC1=CC2=C(c3ccccc3)C(=O)C(C)(OC(=O)C3CCCC3)C(=O)C2=CO1 (centres undefined) | inactive |
| COC(=O)c1ccc(C(=O)OC)c(NC(=S)N2CCN(c3ccccc3F)CC2)c1 | inconclusive [inhibitor, partial curve] |
| COc1ccc([N+](=O)[O-])cc1N(CC(=O)NCCSc1ccccc1)S(C)(=O)=O | inconclusive [inhibitor, single point] |
| Cc1ccccc1NC(=O)CSc1ccsc1[N+](=O)[O-] | inconclusive [inhibitor, single point] |
| O=C(CCN1C(=O)c2ccccc2C1=O)NC(=S)Nc1ccccc1 | inconclusive [inhibitor, single point] |
| FC(F)(F)c1cc(-c2ccco2)nc(N2CCN(Cc3ccccc3)CC2)n1 | active: 22.4 µM |
| Cc1ccc(O)c(C(=O)c2cnc3c(c2)CN(C)C(=O)N3)c1 | active: 25.1 µM |
| CN1CCN(C(=O)c2ccc3c(c2)N(Cc2ccc(Cl)cc2)C(=O)c2ccccc2S3=O)CC1 (centres undefined) | inconclusive [inhibitor, single point] |
| O=C(Nc1ccc2c(c1)OCO2)c1ccc(CN2CCOCC2)cc1 | inactive |
| Cc1ccc2cc(C)c3nnc(SCC(=O)N4CCCc5ccccc54)n3c2c1C | inconclusive [inhibitor, partial curve] |
| O=C(NCC1CCCO1)c1ccc2c(c1)C(=O)N(C1CCCCC1)C2=O (centres undefined) | active: 8.91 µM |

| SMILES | Potency |
| --- | --- |
| Cc1ccc(S(=O)(=O)NC(C(=O)OCC(=O)NC2CCS(=O)(=O)C2)C(C)C)cc1 (centres undefined) | inconclusive [inhibitor, single point] |
| O=C(Oc1c(CN2CCOCC2)cc(Cl)c2cccnc12)c1ccc(F)cc1 | inconclusive [inhibitor, single point] |
| C[C@@H]1CN(C2CCN(Cc3nc(CC4CC4)no3)CC2)C[C@H](C)O1 | inconclusive [inhibitor, single point] |
| O=C(O)CC1(CC(=O)Nc2cc3ccccc3cn2)CCCCC1 | inconclusive [inhibitor, single point] |
| COc1ccccc1CNC(=O)CSc1nn2c(=O)c(C(C)(C)C)nnc2s1 | inactive |
| Cc1ccc(S(=O)(=O)CCC(=O)Nc2cccc(C)c2)cc1 | inactive |
| CCC(C)NCCOCCOc1cc(C)c(Cl)c(C)c1 (centres undefined) | inconclusive [inhibitor, single point] |
| CN(C)c1ccc(-c2nccc(NCCN3CCOCC3)n2)cc1 | inconclusive [inhibitor, single point] |
| COC(=O)c1ccccc1NC(=O)CN1CCN(C23CC4CC(CC(C4)C2)C3)CC1 | inactive |
| CCN1CCN(c2cc(C)c3cc(NC(=O)c4cnccn4)ccc3n2)CC1 | inactive |
| CC(=O)c1c(C)[nH]c(C(=O)Nc2ccc(Cl)c(S(=O)(=O)N(C)C)c2)c1C | inconclusive [inhibitor, full curve, poor fit] |
| CC(C)N(Cc1ccccc1)C(=S)NC1CCCCC1 | inactive |
| Cn1c(Cc2cccs2)nnc1SCc1nc2ccccc2[nH]1 | inactive |
| CCOc1ccc(C2OC(=O)Cc3cc(OC)c(OC)cc32)cc1 (centres undefined) | inconclusive [inhibitor, single point] |
| O/N=C/c1ccc(-c2cc(Cl)ccc2Cl)o1 | inactive |
| COCCSc1nnc(NC(=O)Cc2ccccc2OC)s1 | active: 22.4 µM |
| O=C(NC(=S)Nc1cc(S(=O)(=O)N2CCOCC2)ccc1O)c1ccco1 | active: 25.1 µM |
| COc1ccccc1/C=C(/C#N)C(=O)O | inactive |
| O=C(NS(=O)(=O)c1ccccc1)c1ccccc1F | inactive |
| CN(C)S(=O)(=O)c1ccc(C(=O)NCc2ccc3[nH]c4c(c3c2)CCCC4)cc1 | inconclusive [inhibitor, single point] |
| CCn1c(O)c(C=Nc2ccccc2)oc1=S | active: 20 µM |
| CC(=O)c1cccc(NC(=O)c2ccc(S(=O)(=O)N3CCCCC3)cc2)c1 | active: 22.4 µM |
| O=C1CN(S(=O)(=O)c2ccc(F)cc2)CC(=O)N1CCc1ccccc1 | inconclusive [inhibitor, full curve, poor fit] |
| CCOC(=O)c1sc(NC(=O)COC(=O)Cn2cnc3ccccc32)c(C(=O)OCC)c1C | inconclusive [inhibitor, partial curve] |
